In PubChem BioAssay AID686978 (National Center for Advancing Translational Sciences (NCATS), 2013):
In all, about 420,000 compounds went through this assay and about 64,000 (15%) were called active. The shares of active, inactive and inconclusive entries below differ from those in the screen. Calls come from the whole dose curve; as a rule, active = well fitted inhibition curve with a large enough effect; inconclusive = small, poorly fitted or top-dose-only effect; inactive = flat fitted curve, though single readings scatter. No potency is given beside an inconclusive call; the fits are too rough.

Experiment: qHTS for Inhibitors of human tyrosyl-DNA phosphodiesterase 1 (TDP1): qHTS in cells in absence of CPT; note: nearly all actives have a fitted effect of over 55% in size
Conditions: DT40 Tdp1-/- hTDP1 cells, no CPT, ATP luminescence, 48 h; activity change, negative = growth inhibition: at 46.2 µM (top of the series) unless noted
In short: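 Stably hTDP1-transfected Tdp1-null chicken DT40 cells were treated with library compounds minus camptothecin and grown for at least 48 hr at 37 °C, after which cellular ATP was quantified by luminescence.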
% is set by controls: 0 for no effect and ±100 for the full control effect; potency is the fitted concentration of half-maximal effect; tags give direction and shape of the fitted curve.

| Compound | Potency | activity change, negative = growth inhibition |
| --- | --- | --- |
| CCOC(=O)C1CCC/C1=N\NC(=O)CN(c1cc(OC)ccc1OC)S(=O)(=O)c1ccccc1 (centres undefined) | inconclusive [inhibitor, single point] | – |
| Cc1ccccc1CNC(=O)c1cc2cc(S(=O)(=O)N3CCCCC3)ccc2n1C | active: 18.4 µM | – |
| COc1ccc2sc(/C=C/c3ccccc3O)[n+](C)c2c1 | active: 14.6 µM | – |
| COc1ccc(C(=O)NNC(=S)NC2CCCCC2)cc1OC | inconclusive [inhibitor, single point] | – |
| COc1ccc(-n2c(-c3ccco3)nc3c(cnn3-c3ccccc3C)c2=O)cc1 | active: 23.1 µM | – |
| Cc1cc(C)c(C=NNc2nc3c([nH]2)c(=O)n(C)c(=O)n3C)c(C)c1 | inactive | – |
| CCOc1ccc(NC(=O)C2C3C=CC4(O3)C2C(=O)N(Cc2cccnc2)C4C(=O)NC2CCCCC2)cc1 (centres undefined) | inactive | – |
| COc1ccc(-c2cc(C(=O)OCC(=O)N3CCCC3)c3ccccc3n2)cc1 | inconclusive [inhibitor, single point] | – |
| CCN1CCN(c2ccc(S(=O)(=O)N3CCOCC3)cc2NC(=O)C(C)Oc2cccc(Cl)c2)CC1 (centres undefined) | inconclusive [inhibitor, single point] | – |
| Cc1ccccc1OCC(=O)NCC(=O)OCc1ccc2ccccc2c1 | active: 15.8 µM | – |
| O=C(CSc1nnc(Cc2ccccc2)o1)N1CCc2ccccc21 | inconclusive [inhibitor, partial curve] | – |
| CCOc1ccc(C2c3c(oc4ccccc4c3=O)C(=O)N2c2nnc(C)s2)cc1OC (centres undefined) | inactive | – |
| CC1CCC2(CC1)NC(=O)N(CC(=O)N1CCN(S(=O)(=O)c3ccc4c(c3)CCC4)CC1)C2=O (centres undefined) | inconclusive [inhibitor, partial curve] | – |
| Cc1ccc([C@H]2C[C@@H](n3cc(-c4ccc(F)cc4)nn3)[C@H](O)CN2CC2CCCCC2)cc1 | inconclusive [inhibitor, single point] | – |
| COc1ccc(CCNC(=O)c2cnc(Cl)c(Cl)c2)cc1 | inconclusive [inhibitor, single point] | – |
| CN(C(=O)c1ccccc1[N+](=O)[O-])c1ccccc1C(=O)NCc1ccccc1 | inactive | – |
| Cc1cccc(NC(=O)c2ccc(COc3cccc4ccccc34)o2)n1 | inconclusive [inhibitor, partial curve] | – |
| Cc1cc(C)c2oc(C(=O)Nc3ccc(S(=O)(=O)N4CCC(C)CC4)cc3)cc(=O)c2c1 | active: 7.31 µM | – |
| Cc1cc(NC(=O)/C=C/c2ccco2)ccc1NC(=O)c1ccccc1 | inactive | – |
| CC(=O)NCCCC(=O)NNC1CC(=O)N(c2cccc(Cl)c2)C1=O (centres undefined) | inconclusive [inhibitor, single point] | – |
| CCOC(CCn1c(SCC(=O)Nc2cc(C)on2)nc2ccccc2c1=O)OCC | inconclusive [inhibitor, partial curve, poor fit] | – |
| CCN1C(=O)[C@H]2[C@@H](c3ccc(C)cc3)N3C(=O)N(c4cccc(Br)c4)C(=O)[C@@]3(CC(C)C)[C@H]2C1=O | inconclusive [inhibitor, single point] | – |
| Cc1cc(C)n2c(Nc3ccccc3)c(-c3ccccc3)nc2n1 | inconclusive [inhibitor, single point] | – |

| Compound | Potency | activity change, negative = growth inhibition |
| --- | --- | --- |
| C[C@@]12CCC=C[C@H]1[C@H](c1ccc(C(F)(F)F)cc1)N(Cc1ccccc1)C2=O | active: 16.4 µM | – |
| Cc1cccc(Cn2cnc3c(cnn3-c3ccc(Cl)cc3)c2=O)c1 | inconclusive [inhibitor, single point] | – |
| CCn1cc2nc(SCC(=O)Nc3ccc(F)cc3F)n(Cc3ccccc3)c(=O)c2n1 | inconclusive [inhibitor, single point] | – |
| CCOc1ncccc1C(=O)Nc1ccccc1C(=O)NCc1ccc2c(c1)OCO2 | inconclusive [inhibitor, single point] | – |
| CC(C)CCNC(=O)C1(O)c2ccccc2NC(=O)N1c1ccc(Cl)cc1 (centres undefined) | inactive | – |
| CCN(CC)S(=O)(=O)c1csc(C(=O)NCc2ccccc2)c1 | inconclusive [inhibitor, single point] | – |
| Cc1ccc(S(=O)(=O)n2nc(-c3ccco3)nc2NCc2ccccc2Cl)cc1 | inconclusive [inhibitor, single point] | – |
| Cc1ccccc1Nc1nc(N)nc(CSc2ccccc2)n1 | inconclusive [inhibitor, single point] | – |
| CC(NC(=O)C1CCC(CNS(=O)(=O)c2ccc3c(c2)C(C)(C)C(=O)N3C)CC1)c1ccccc1 (centres undefined) | inactive | – |
| Cc1ccc2nc(N3CCN(C(=O)c4ccco4)CC3)sc2c1 | inactive | – |
| Cc1ccc(-c2csc(N/N=C/c3ccco3)n2)c(C)c1 | inconclusive [inhibitor, partial curve] | – |
| O=C(NCc1ccc(F)cc1)c1cc(C2CCCN(C(=O)CCCc3ccccc3)C2)on1 (centres undefined) | inconclusive [inhibitor, single point] | – |
| CCOC(=O)[C@]12CCC=C1N(Cc1ccco1)C(=O)[C@H](CC(=O)NCCCCc1ccccc1)C2 | inconclusive [inhibitor, single point] | – |
| COc1ccc(Br)c(Cn2c(C)c(C(=O)N(C)Cc3ccc(F)cc3)sc2=O)c1 | inconclusive [inhibitor, single point] | – |
| COCCn1c(N)c(N(Cc2ccccc2)C(=O)Cc2c(Cl)cccc2Cl)c(=O)[nH]c1=O | inactive | – |
| CCCC(=O)N(Cc1cc(=O)[nH]c2ccccc12)c1ccc(C)cc1C | inconclusive [inhibitor, single point] | – |
| CCCOc1ccc(N/C=C/C(=O)c2cc(OC)c(OC)c(OC)c2)cc1 | active: 23.1 µM | – |
| Cc1sc2ncnc(N3CCN(Cc4ccccc4)CC3)c2c1-c1ccccc1 | inconclusive [inhibitor, single point] | – |
| CC(=O)c1sc(NC(=O)c2c(F)cccc2F)nc1C | inactive | – |
| Cc1cccc(Cn2nnc(C(=O)Nc3cc(C)ccc3C)c2N)c1 | active: 18.4 µM | – |
| Cc1ccc(NC(=S)NNC(=S)Nc2ccc(C)cc2)cc1 | active: 2.31 µM | – |
| O=C(Nc1c2c(nn1-c1ccc(F)cc1)CS(=O)(=O)C2)C1CCCC1 | inactive | – |
| CC(C)NC(=O)C1CCCN(c2ncnc3c2nc2n3CCCCC2)C1 (centres undefined) | inconclusive [inhibitor, single point] | – |

| Compound | Potency | activity change, negative = growth inhibition |
| --- | --- | --- |
| COc1ccc(Cl)cc1N(CC(=O)NC(C(C)C)C(C)C)S(C)(=O)=O | inconclusive [inhibitor, single point] | – |
| Cc1ccc(C)c(S(=O)(=O)N2CCN(CC(=O)N3CCc4ccccc4C3)CC2)c1 | inconclusive [inhibitor, partial curve] | – |
| Cc1ccc(NC(=O)N(Cc2nc3ccccc3c(=O)[nH]2)Cc2cccs2)cc1 | inconclusive [inhibitor, single point] | – |
| O=C(Nc1cccc(NS(=O)(=O)c2ccc(S(=O)(=O)NC3CC3)cc2)c1)c1ccccn1 | – | inconclusive: -33.2% [inhibitor] |
| Cc1cccc(N=CC=C2OC(C)(C)C(C)(C)O2)c1 | inactive | – |
| CCc1ccc(C2=NNC(=Nc3cccc(S(=O)(=O)N(C)C)c3)SC2)cc1 | active: 18.4 µM | – |
| CCOc1ncccc1C(=O)OCCCC(=O)c1ccc(Br)cc1 | inconclusive [inhibitor, partial curve] | – |
| Cc1sc(NC(=O)c2ccccc2F)c(CN2CCCCC2C)c1C (centres undefined) | active: 11.6 µM | – |
| c1ccc(Nc2c3c(nc4ccccc24)CCC3)cc1 | active: 14.6 µM | – |
| Cn1cccc1Cc1nnc(SCC(=O)N2CCN(c3ccccc3)CC2)n1-c1ccc(F)cc1 | inconclusive [inhibitor, single point] | – |
| COc1ccc(OCCN2CCC(C(=O)NC(C)c3cccc4ccccc34)CC2)cc1 (centres undefined) | inconclusive [inhibitor, single point] | – |
| COc1ccc(-c2noc(-c3ccc(Cl)cc3[N+](=O)[O-])n2)cc1OC | inconclusive [inhibitor, single point] | – |
| COc1ccc(Cl)cc1NC(=O)Cn1cnc2c1c(=O)n(C)c(=O)n2C | – | inconclusive: -38.8% [inhibitor] |
| Cc1ccc(CNC(=O)CCCn2c(=O)c3ccccc3n(Cc3ccccc3C)c2=O)cc1 | inconclusive [inhibitor, single point] | – |
| Cc1cc(C)c2sc(NC(=O)c3ccc(S(=O)(=O)N4CCOCC4)cc3)nc2c1 | inconclusive [inhibitor, single point] | – |
| CC(=O)N/C(=C\c1ccccc1)C(=O)OCC(=O)c1c(N)n(CC(C)C)c(=O)n(C)c1=O | inactive | – |
| CC(=O)N1c2ccc(S(=O)(=O)N(C)CC(=O)NC3CCCCC3C)cc2CC1C (centres undefined) | inactive | – |
| N=c1c2c3c(sc2ncn1Nc1ccccc1)CCC3 | inconclusive [inhibitor, single point] | – |
| Cn1c(=O)n(C)c2cc(N3CCOCC3)c(NC(=O)c3c(F)cccc3F)cc21 | inactive | – |
| N#C/C(=C(/O)CN1CCN(c2ccccc2F)CC1)c1nc(-c2ccc(Cl)cc2)cs1 | inconclusive [inhibitor, single point] | – |
| Cc1ccc2[nH]c(=O)c(CN(CC3CCCO3)C(=O)c3cccs3)cc2c1 (centres undefined) | inactive | – |
| COc1cccc2c1c(NC(=O)Nc1ccc(F)cc1F)nn2C | inactive | – |
| N#Cc1ccccc1CSc1nc(O)cc(=O)[nH]1 | inactive | – |
